# Results taken from the BET-seq Pho4 binding data (Le et al. 2018).
# The other results are listed elsewhere or left out. Values were computed here from the reads of four pooled replicates and scatter widely.
# Target: T1, Pho4 (S. cerevisiae) (UniProt P07270)
# T1 sequence: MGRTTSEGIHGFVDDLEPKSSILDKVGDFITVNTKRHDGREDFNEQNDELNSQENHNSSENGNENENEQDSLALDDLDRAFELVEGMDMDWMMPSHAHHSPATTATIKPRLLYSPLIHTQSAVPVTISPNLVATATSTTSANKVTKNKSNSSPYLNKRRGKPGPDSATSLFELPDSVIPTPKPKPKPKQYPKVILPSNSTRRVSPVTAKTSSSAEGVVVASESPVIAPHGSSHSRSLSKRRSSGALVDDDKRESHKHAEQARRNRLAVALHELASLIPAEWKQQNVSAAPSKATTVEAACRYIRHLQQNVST
# Experiment: relative binding free energy (BET-seq); higher = weaker binding
# Conditions: reference: library average
row,Sequence,relative binding free energy
1,AGGTTCACGTGGTGTT,0.22 kcal/mol
2,CAGTTCACGTGGGAAG,0.36 kcal/mol
3,ATGTCCACGTGGGGTA,-0.14 kcal/mol
4,GTTGTCACGTGTGGTG,0.14 kcal/mol
5,GGCGGCACGTGAGGGA,0.12 kcal/mol
6,TCTAGCACGTGTTATT,-0.06 kcal/mol
7,CATGTCACGTGTGTTT,-0.04 kcal/mol
8,TATGGCACGTGGGTAT,-0.14 kcal/mol
9,AGTTGCACGTGTTGGG,0.01 kcal/mol
10,TGTTACACGTGTAGTC,0.12 kcal/mol
11,AACGTCACGTGTTTGT,-0.04 kcal/mol
12,GTGGCCACGTGTGTAG,-0.09 kcal/mol
13,CGGCACACGTGTGTTG,-0.04 kcal/mol
14,GTCATCACGTGGAATG,0.28 kcal/mol
15,AAAGCCACGTGTTAGG,0.07 kcal/mol
16,GGTTACACGTGGCGTG,0.04 kcal/mol
17,GGGTTCACGTGGCGCT,0.21 kcal/mol
18,TGAGACACGTGCGCTG,0.09 kcal/mol
19,TCGTACACGTGTTGCT,0.04 kcal/mol
20,TTGCTCACGTGGTATA,-0.01 kcal/mol
21,TATATCACGTGTTTAC,0.12 kcal/mol
22,GTTGACACGTGGGCTG,0.01 kcal/mol
23,TTCGTCACGTGGATAT,0.19 kcal/mol

row,Sequence,relative binding free energy
1,TTGTTCACGTGTTCTA,0.24 kcal/mol
2,TTGTCCACGTGGGCTA,0.1 kcal/mol
3,CTCGTCACGTGTGAGT,0.1 kcal/mol
4,TCGGACACGTGGTATG,0 kcal/mol
5,TTGATCACGTGCGTGA,0.05 kcal/mol
6,GTCTTCACGTGTGGGT,0.33 kcal/mol
7,TTAGGCACGTGTATGA,-0.08 kcal/mol
8,ATTTTCACGTGACGAG,0.35 kcal/mol
9,ATGCTCACGTGCTTGG,0.2 kcal/mol
10,CGGGTCACGTGAAGTT,0.45 kcal/mol
11,ATTATCACGTGATAGT,0.27 kcal/mol
12,GAAGTCACGTGGAGTT,0.2 kcal/mol
13,TGGTGCACGTGCGTGC,-0.1 kcal/mol
14,CCTGGCACGTGCGGGT,-0.04 kcal/mol
15,AATTTCACGTGCTGTG,0.12 kcal/mol
16,ATCTGCACGTGGTTTT,0 kcal/mol
17,ATCAGCACGTGGGATT,-0.12 kcal/mol
18,GGGTTCACGTGTGTTG,0.3 kcal/mol
19,TTGCGCACGTGTGGGC,-0.14 kcal/mol
20,GTAAACACGTGTGTTA,-0.01 kcal/mol
21,ATTGTCACGTGGGCTT,0.02 kcal/mol
22,AGGATCACGTGGCGGA,0.25 kcal/mol
23,TTTGTCACGTGACCGT,0.17 kcal/mol

row,Sequence,relative binding free energy
1,GTAGACACGTGCGGAG,0.01 kcal/mol
2,CGGAGCACGTGTGTGA,-0.12 kcal/mol
3,GATGACACGTGTGGTA,0.29 kcal/mol
4,GGAGTCACGTGTGAGT,0.13 kcal/mol
5,GTCAGCACGTGGCTTG,-0.04 kcal/mol
6,TCTTTCACGTGATTGT,0.31 kcal/mol
7,TGTTGCACGTGCAATT,-0.11 kcal/mol
8,TTGGACACGTGACTTT,0.15 kcal/mol
9,ATAAGCACGTGGCGTG,-0.13 kcal/mol
10,AGGTTCACGTGTGACG,0.34 kcal/mol
11,CTTTGCACGTGTGGGG,0.1 kcal/mol
12,TAGTGCACGTGCTGGT,-0.06 kcal/mol
13,TCTGGCACGTGGATGT,0 kcal/mol
14,GGGTGCACGTGTGGCT,0.16 kcal/mol
15,AGGTTCACGTGTTTCG,0.22 kcal/mol
16,ATGATCACGTGACAGG,0.27 kcal/mol
17,GTTGGCACGTGTGCGG,-0.08 kcal/mol
18,CGGTGCACGTGGGATA,-0.18 kcal/mol
19,TAGTTCACGTGTGCAG,0.19 kcal/mol
20,CTTGTCACGTGTAGTA,0.11 kcal/mol
21,TAGGTCACGTGCTGGC,0 kcal/mol
22,TATTTCACGTGTTACT,0.22 kcal/mol
23,ATGTCCACGTGATTTG,0.17 kcal/mol

row,Sequence,relative binding free energy
1,TTTAGCACGTGCGCGT,-0.18 kcal/mol
2,GGTAACACGTGGTAAT,0.11 kcal/mol
3,AGTGGCACGTGGTTAG,-0.21 kcal/mol
4,TCGTGCACGTGTCGGA,-0.01 kcal/mol
5,CGGAACACGTGTGGCG,0.17 kcal/mol
6,ATATTCACGTGGGAAT,0.1 kcal/mol
7,GTGCGCACGTGGGATA,-0.11 kcal/mol
8,GCACGCACGTGAAGGG,0.32 kcal/mol
9,TGTTACACGTGTAAGT,0.25 kcal/mol
10,CTTTACACGTGGGCTT,-0.03 kcal/mol
11,GCAAGCACGTGTGGGG,-0.03 kcal/mol
12,TAGGGCACGTGGAGGG,-0.06 kcal/mol
13,CGGGTCACGTGGGGGG,-0.05 kcal/mol
14,TTGATCACGTGAGGTC,0.42 kcal/mol
15,TTTTGCACGTGTTCCG,-0.1 kcal/mol
16,GTTAGCACGTGTCGCT,0.09 kcal/mol
17,CTGTTCACGTGATGGG,0.15 kcal/mol
18,AAGTTCACGTGAGCTG,0.53 kcal/mol
19,GTTTGCACGTGGGACG,0.09 kcal/mol
20,TGTTACACGTGTGATG,0.19 kcal/mol
21,CGGTACACGTGAGTAT,0.42 kcal/mol
22,ATCTTCACGTGTTGAG,0.36 kcal/mol
23,TAGGCCACGTGTGCGT,-0.17 kcal/mol

row,Sequence,relative binding free energy
1,GTGGTCACGTGGGGCC,0.11 kcal/mol
2,AGTGTCACGTGATTGA,0.21 kcal/mol
3,AGTCTCACGTGGGAGT,0.13 kcal/mol
4,TGGTACACGTGATGTG,0.15 kcal/mol
5,AGGTACACGTGTACGT,0.04 kcal/mol
6,TTTATCACGTGGGTGA,0.05 kcal/mol
7,AATGTCACGTGCGTTT,0.13 kcal/mol
8,GATTTCACGTGTGATG,0.31 kcal/mol
9,TAGTGCACGTGGGGAA,-0.24 kcal/mol
10,GGACACACGTGTAGTG,0.1 kcal/mol
11,GGGAACACGTGTGTAT,0.12 kcal/mol
12,AGGAACACGTGAATGT,0.41 kcal/mol
13,TATTGCACGTGTGGAC,0.01 kcal/mol
14,TCTGTCACGTGGGCTT,-0.03 kcal/mol
15,TGAAACACGTGGTTTA,-0.19 kcal/mol
16,ATATGCACGTGGGGAA,-0.1 kcal/mol
17,CTTGACACGTGTAATT,0.21 kcal/mol
18,TTTGGCACGTGGGATC,-0.03 kcal/mol
19,TAGATCACGTGCGGTA,0.18 kcal/mol
20,GTTTTCACGTGTCATA,0.27 kcal/mol
21,TTATTCACGTGTATTC,0.13 kcal/mol
22,TTTGACACGTGTGTAC,0.08 kcal/mol
23,ATGTACACGTGGATAG,-0.14 kcal/mol
